# Several values for one entry are separate records, joined by “and”; a condition that tells them apart may be missing. Identical values can stand only once. In all, about 48,000 compounds went through this assay and about 1,200 (2.5%) were called active. About 2% were inconclusive and are not listed.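 How the source made its calls: active means activation of at least 60% and not above a set upper limit (about 1 call in 100 departs from these limits); inconclusive means activation of 40% to 60%, or above that upper limit; inactive means activation under 40%.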 The list shows a part of the results.
# Molecular target: Probable G-protein coupled receptor 32 (Homo sapiens) (UniProt O75388)
# Chain of UniProt O75388 (O75388 whole entry, looked up): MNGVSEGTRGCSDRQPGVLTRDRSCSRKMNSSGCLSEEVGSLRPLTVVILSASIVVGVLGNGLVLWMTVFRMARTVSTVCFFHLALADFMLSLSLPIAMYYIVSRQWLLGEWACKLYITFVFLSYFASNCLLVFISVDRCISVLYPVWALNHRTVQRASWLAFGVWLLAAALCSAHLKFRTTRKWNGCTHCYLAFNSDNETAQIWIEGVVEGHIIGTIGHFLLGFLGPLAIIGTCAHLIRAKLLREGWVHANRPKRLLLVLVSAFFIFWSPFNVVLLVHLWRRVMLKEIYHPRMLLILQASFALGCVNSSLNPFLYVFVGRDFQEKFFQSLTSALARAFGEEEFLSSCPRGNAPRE
# Assay: qHTS for Agonists of Human Resolvin D1 Receptor DRV1; further: 0% is about no effect
# Conditions: CHO-K1 GPR32 beta-arrestin PathHunter luminescence, 90 min; at 76.9 µM; stronger effect = higher value; zero percent set by DMSO-only wells
# Method in brief: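 Step 1: seed CHO-K1 GPR32 beta-arrestin cells, 2,500/well, overnight at 37 °C. Step 2: add compounds, 90 min at 37 °C. Step 3: detection reagent, 1 h ambient, then luminescence.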
row,SMILES,activation
1,Cc1ccc(N(CC(=O)NCC(C)c2ccccc2)S(=O)(=O)N(C)C)cc1 (centres undefined),inactive: -8.27%
2,CCCCC(CC)CNC(=O)c1ccc2c(=O)n(CCOC)c(=O)[nH]c2c1 (centres undefined),inactive: 6.66%
3,Cc1ccccc1-c1nnc(CN2CCN(c3cccc(C)c3C)CC2)o1,inactive: -20.1%
4,Brc1ccc(-c2nnc3sc(CN4CCCCC4)cn23)cc1,inactive: 1.37%
5,Cc1ccc(NC(=O)CSc2nnc(C)n3c2cc2sccc23)c(C)c1,inactive: -8.53%
6,CCOc1ccccc1NC(=O)CSc1nnc(N)s1,inactive: -1.38%
7,CCCN1C(=O)c2[nH]nc(-c3ccccc3O)c2C1c1cccc(OCc2ccccc2)c1 (centres undefined),inactive: 26.6%
8,COc1cccc(NC(=O)CSc2nc3c([nH]c4ccccc43)c(=O)n2-c2ccccc2)c1,inactive: -41.2%
9,Cc1ccc(CSc2ccc(-c3cccs3)nn2)cc1,inactive: -17.3%
10,O=C(Cn1ncc2c3ccccc3n(Cc3ccccc3F)c2c1=O)NC1CCCCCC1,inactive: -3.59%
11,O=C(NCc1ccccc1Cl)c1cc2c(s1)-c1ccccc1SC2,inactive: -20.8%
12,CC(C)(C)NC(=O)c1cnn(-c2ccccc2)c1C1CCN(C(=O)OC(C)(C)C)CC1,inactive: 0.329%
13,COCCNC(=O)C(=O)NCC(c1cccnc1)N1CCN(c2ccccc2OC)CC1 (centres undefined),inactive: -8.85%
14,CCC(=O)Nc1ccccc1-c1nc2ccccc2n(CC(=O)c2ccc(C)c(C)c2)c1=O,inactive: -12.2%
15,COc1cc(C(=O)NCC(c2cccnc2)N2CCc3ccccc3C2)cc(OC)c1OC (centres undefined),inactive: -4.77%
16,O=S(=O)(Nc1cccc(-c2ccc(N3CCCCCC3)nn2)c1)c1ccccc1F,inactive: -6.64%
17,Cc1oc2ncn(C)c(=O)c2c1C(=O)Nc1ccccn1,inactive: -21.5%
18,O=C(CN1C(=O)COc2ccc(S(=O)(=O)N3CCOCC3)cc21)N1CCN(c2cccc(C(F)(F)F)c2)CC1,inactive: 2.02%
19,C[C@]12CCC(=O)C=C1C=C[C@@H]1[C@@H]2CC[C@@]2(C)[C@H]1CC[C@@]21CCC(=O)O1,inactive: -7.38%
20,CCc1nc2sc3c(N4CCC(C)CC4)ncnc3c2c2c1CCCC2,inactive: 0.176%
21,Cc1nc2nc(SCc3c(F)cccc3Cl)nn2c(C)c1Cc1ccccc1,inactive: -19.9%
22,CN(C)S(=O)(=O)c1ccc(C(=O)NCCS(=O)(=O)N2CCN(c3ccccc3)CC2)cc1,inactive: -4.93%
23,Cc1ccc(-c2cc(-c3ccc4c(c3)NC(=O)CO4)nc3c2COc2ccc(C)cc2-3)cc1,inactive: -10.9%
24,COc1ccc2c(c1)c(CC(=O)O)c(C)n2Cc1ccc(Cl)cc1,inactive: -1.58%
25,COC(=O)[C@@H](N)Cc1ccc(O)c(O)c1,inactive: -2.87% and inactive: -7.9%
26,Cc1cc(NC(=O)c2ccccc2Cl)ccc1NC(=O)c1ccccc1,inactive: 48.2%
27,COc1ccc(-c2noc(COc3cc(C)c(Br)c(C)c3)n2)cc1OC,inactive: -6.26%

row,SMILES,activation
1,COc1ccc(OC)c(CNC(=O)c2cc3cc4ccc(OC)cc4nc3o2)c1,inactive: -4.65%
2,Cc1cc(-n2c(C)nc3ccccc3c2=O)ccc1NC(=O)c1ccc(C)c([N+](=O)[O-])c1,inactive: 11%
3,Cc1ccc(C(=O)/C=C/c2cn(CC(O)CN3CCc4ccccc43)c3ccccc23)cc1 (centres undefined),inactive: -39.1%
4,Cc1ccc(O)c(NC(=O)c2noc3c2CCCCC3)c1,inactive: -13.9%
5,COc1cccc(-n2cc(C(=O)Oc3cccc(C(F)(F)F)c3)c3ccccc3c2=O)c1,inactive: -4.75%
6,O=C(CC1C(=O)N(c2ccc(F)cc2)C(=O)N1Cc1ccc2c(c1)OCO2)Nc1ccc(F)cc1 (centres undefined),inactive: 0.707%
7,CC(=O)N1c2ccccc2CC1C(=O)N1CCN(c2cccc(Cl)c2)CC1 (centres undefined),inactive: -4.89%
8,COc1cccc(CNC(=O)CN2C(=O)CCCc3ccccc32)c1OC,inactive: -1.43%
9,CCOc1ccc(OCC)c(NC(=O)C(NS(=O)(=O)c2ccc(Br)s2)c2ccccc2)c1 (centres undefined),active: 84.9%
10,CCN(c1ncnc2c1cnn2-c1cc(Cl)ccc1C)C1CCCCC1,inactive: -3.25%
11,Cc1ccc(C)c(CN2C(=O)c3ccccc3S(=O)(=O)c3ccc(C(=O)N4CCCC4)cc32)c1,inactive: -20.9%
12,CCc1ccc(NC(=O)c2ccc3oc(=O)n(Cc4ccccc4)c3c2)cc1,inactive: -0.249%
13,CCOC(=O)c1cnc2c(C)cccc2c1NCCc1ccc(OC)c(OC)c1,inactive: -19.8%
14,Nc1c(-c2nc(-c3cccs3)no2)nnn1-c1cccc(F)c1,inactive: 0.0772%
15,CC(=O)NCCNc1nc2c(-c3ccc(C)cc3)nnn2c2ccccc12,inactive: -4.31%
16,CCOC(=O)CSc1nc2c(sc3ccccc32)c(=O)n1Cc1ccc(C)cc1,inactive: 7.24%
17,CCc1sc(Nc2ccc(C)cc2Br)nc1-c1cc2cccc(OC)c2oc1=O,inactive: -10.8%
18,CNC(=O)C1CCN(Cc2cc3ccccc3n2Cc2ccccc2C)CC1,inactive: -15.3%
19,CCCN(CCC)C(=O)Cn1c(=O)n(-c2ccc(C)cc2)c(=O)c2ccc(C(=O)NCc3ccccc3Cl)cc21,inactive: -17.9%
20,Cc1ccc(-c2cn3c(n2)sc2cc(C(=O)NCc4cccs4)ccc23)cc1,inactive: -18.9%
21,O=C(CCc1nnc2n(Cc3ccccc3Cl)c(=O)c3ccccc3n12)Nc1ccc(F)c(F)c1,inactive: 1.56%
22,Cc1ccc(-n2nc(CO)c(C(=O)NCC(c3ccccc3)c3ccccc3)n2)cc1,inactive: -6.17%
23,O=C(NCc1cccc(Br)c1)C1CCN(C(=O)c2sccc2-n2cccc2)CC1,inactive: -18.9%
24,CCOCCCNC(=O)CCC(=O)NNc1nc2ccccc2c2nc(-c3ccccc3)nn12,inactive: -21.3%
25,Cc1oc(-c2ccccc2)nc1CSc1nnc(C)n2c1cc1sccc12,inactive: -21.7%
26,CCCCNC(=O)Cn1c(=O)cc(C)c2c(C)nn(-c3ccc(CC)cc3)c21,inactive: 3.22%
27,CCC1CN(C(=O)N2CCC(C(=O)NCCc3ccc(C)cc3)CC2)c2ccccc2O1 (centres undefined),inactive: -12.4%

# Reference: PubChem BioAssay AID1346428 (National Center for Advancing Translational Sciences (NCATS), 2018)
